Reference: PubChem BioAssay AID1347417 (National Center for Advancing Translational Sciences (NCATS), 2020)
Out of some 120,000 compounds screened, about 5,300 (4.4%) were called active. Inconclusive means that the source gave no clear call. Such entries were picked first, then a sample of the others. Calls come from the whole dose curve; as a rule, active = well fitted inhibition curve with a large enough effect; inconclusive = small, poorly fitted or top-dose-only effect; inactive = no such curve, though single readings can be large or run the other way. A potency beside an inconclusive call is a rough fit, not a confirmed value.

Experiment: qHTS Primary assay for Inhibitors of Plasmodium falciparum Dd2 growth in vitro; note: nearly all actives have a fitted effect of over 65% in size;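 for activity, negative = inhibition: plate controls were DMSO vehicle for no effect and reference drug for full effect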
Details: P. falciparum Dd2 growth, SYBR Green, 72 h; activity, negative = inhibition: at 28.9 µM (top of the series) unless noted; series mostly up to 28.9 µM
Procedure, shortened: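 Infected erythrocytes (Dd2, 0.3% parasitemia, 2.5% hematocrit final) are added to compound in RPMI-1640/Albumax II medium, grown 72 h at 37C in low oxygen, then lysed with saponin/Triton-X containing SYBR Green and read by fluorescence.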
Potency is the fitted concentration of half-maximal effect; tags give direction and shape of the fitted curve.

| SMILES | Potency | activity, negative = inhibition |
| --- | --- | --- |
| COc1ccc(C(=O)N2CCC(c3nc(-c4ccc(S(=O)(=O)N5CCCC5)cc4)no3)CC2)cc1 | inconclusive: 10 µM [inhibitor, single point] |  |
| COCCC(=O)N1CCC(N2CC3CC(C2)[C@H]2CCCC(=O)N2C3)CC1 (some centres undefined) | inactive |  |
| O=C(NC1CCCCC1)[C@@H]1C[C@@H](O)CN1C1CCN(C(=O)c2cccnc2)CC1 | inactive |  |
| CSc1ccc(CNC(=O)CCn2c(=O)c3cccn3c3ccc(F)cc32)cc1 | inconclusive: 20 µM [inhibitor, single point] |  |
| Clc1ccccc1Nc1cnc2ccc(N3CCOCC3)nn12 | inactive |  |
| CC(=O)NC1(C)CCN(Cc2cccc(Oc3ccccc3)c2)CC1 | inconclusive: 2.82 µM [inhibitor, partial curve, poor fit] |  |
| CCCCc1nc(C)cc(NCCNC(=O)C2CC3(CCNCC3)CN2)n1 (centres undefined) | inactive |  |
| COc1cc(NC(=O)N2CC[C@H](c3nc4ccccc4o3)C2)cc(OC)c1 | inactive |  |
| Cc1cccc(NC(=O)c2ccc(-c3nc(CSc4ccccc4)c(C)o3)cc2)c1C | inconclusive: 0.112 µM [inhibitor, partial curve, poor fit] |  |
| Cc1nc2sc(C(N)=O)c(N)c2c(-c2ccc(Br)cc2)c1C(=O)Nc1ccc(Cl)cc1 | inconclusive: 20 µM [inhibitor, partial curve, poor fit] |  |
| O=C(Cn1cccc1-c1nc(-c2ccccc2)no1)Nc1ccccc1Cl | inactive |  |
| COc1ccc(C(=O)N2CCOc3ccc(CCC(N)=O)cc3C2)cc1F | inconclusive: 10 µM [inhibitor, single point] |  |
| COc1ccc(C(=O)N2CCCC(c3nc(-c4cccnc4)no3)CCNC(=O)CC2)c(OC)c1 (centres undefined) | inactive |  |
| Cc1ccc(-c2cnc([C@@H]3COCCN3C3CCOCC3)[nH]2)cc1 | inactive |  |
| CCOc1ccc(C(=O)c2cnc3ccc(Cl)cc3c2S(=O)(=O)c2ccc(C)cc2)cc1 | inconclusive: 15.8 µM [inhibitor, single point] |  |
| CCOc1ccc(CC(=O)N2CC(CO)C3(CCNCC3)C2)cc1OCC (centres undefined) | inconclusive: 3.98 µM [inhibitor, single point] |  |
| COc1cccc(CN2CCNc3cc(-c4ccccc4)ncc3C2)c1 | inconclusive: 12.6 µM [inhibitor, single point] |  |
| COc1cncc(NC(=O)C2=NO[C@@H]3CN(Cc4ccc(F)c(Cl)c4)C[C@H]23)c1 | inconclusive: 22.4 µM [inhibitor, single point] |  |
| COc1ccc(-n2c(=O)c3ccccc3n(Cc3ccccc3C)c2=O)c(OC)c1 | inconclusive: 10 µM [inhibitor, partial curve] |  |
| CC(=O)Nc1nonc1-c1nnc(SCC(=O)Nc2ccc(C)c(Cl)c2)n1-c1ccccc1 | inconclusive: 7.08 µM [inhibitor, single point] |  |
| CC(=O)c1ccc(NC(=O)N2C[C@@H]3C[C@H](C2)c2ccc(NC(=O)c4ccco4)c(=O)n2C3)cc1 | inactive |  |
| Cc1cc(C(=O)N2[C@H]3CC[C@@H]2c2cnc(-c4ccccc4)nc2C3)nn1C | inconclusive: 10 µM [inhibitor, single point] |  |

| SMILES | Potency | activity, negative = inhibition |
| --- | --- | --- |
| COc1cccc(-c2cc(C(=O)N3CCC4(CC3)CC(OC)CCO4)[nH]n2)c1 (centres undefined) | inconclusive: 8.91 µM [inhibitor, partial curve, poor fit] |  |
| O=C(O)C[C@@H]1CCN(C(=O)c2ccc(C(F)(F)F)cc2)C[C@@H]1CCN1CCN(c2cccc(C(F)(F)F)c2)CC1 | inconclusive: 11.2 µM [inhibitor, single point] |  |
| CCCCc1cc(C[C@H]2CNCC[C@H]2CC(=O)NC2CCCCC2)no1 | inconclusive: 14.1 µM [inhibitor, single point] |  |
| CCC(CC)C(=O)NC[C@H]1C[C@@H]2CCN1C[C@@H]2c1cc(-c2ccc(OC)c(OC)c2)nn1C | inconclusive: 17.8 µM [inhibitor, single point] |  |
| CCn1cc(CN2C[C@@H](COc3ccccc3)[C@H](C(N)=O)C2)c(C)n1 | inconclusive: 6.31 µM [inhibitor, partial curve] |  |
| CC1CN(S(=O)(=O)c2ccc3c(c2)NC(=O)CC(=O)N3)c2ccccc2O1 (centres undefined) | inactive |  |
| CCCCN(c1ccccc1)S(=O)(=O)c1ccc2c(c1)CC(C)N2C(=O)C1CC1 (centres undefined) | inconclusive: 10 µM [inhibitor, single point] |  |
| CC(C)(C)CN1CCNc2cc(Nc3cccnc3)ncc2C1 | inactive |  |
| CCc1ccccc1Nc1nc2ccccc2n2cnnc12 | inconclusive: 3.98 µM [inhibitor, full curve, poor fit] |  |
| COc1ccc(Cl)cc1NC(=O)CSc1nc(-c2ccco2)cc(C(F)(F)F)n1 | inconclusive: 17.8 µM [inhibitor, single point] |  |
| CCOC(=O)C1CCN(C(=O)c2cc(-c3ccncc3)cn2Cc2ccc(C)cc2)CC1 | inconclusive: 2 µM [inhibitor, full curve] |  |
| O=C(c1ccc(-c2ccc(CO)cc2)nc1)N1CCC(Oc2cccnc2)CC1 | inconclusive: 8.91 µM [inhibitor, partial curve, poor fit] |  |
| COc1ccccc1N1CCN(C(=O)C(N)c2c(C)n[nH]c2C)CC1(C)C (centres undefined) | inconclusive: 10 µM [inhibitor, single point] |  |
| CCOC(=O)C1=C(CN2CCN(c3cc(C)ccc3C)CC2)NC(=O)NC1c1ccc(Cl)cc1 (centres undefined) | active: 10 µM |  |
| CCn1ccc2cc(S(=O)(=O)N3CCCN(C(=O)NCCOC)CC3)ccc21 | inconclusive: 17.8 µM [inhibitor, single point] |  |
| COCCCNc1nc2c([S+](=O)([O-])c3ccc(Br)cc3)nnn2c2ccccc12 |  | inconclusive: -90.2% [inhibitor] |
| Cc1ccc(C)c(CN2C(=O)c3ccccc3S(=O)(=O)c3ccc(C(=O)N4CCN(c5ccccc5F)CC4)cc32)c1 | inconclusive: 7.94 µM [inhibitor, partial curve, poor fit] |  |
| O=C(Nc1ccccc1)N1CCc2nc(-c3ccccc3)nc(-c3ccc(Cl)cc3)c2C1 | active: 10 µM |  |
| COCC(=O)N[C@H]1CO[C@H]2[C@@H]1OC[C@@H]2Nc1nccc(-c2cccc(C#N)c2)n1 | active: 11.2 µM |  |
| COc1ncccc1CNC[C@H]1Cn2cc(-c3ccc4c(c3)OCCCO4)nc2CO1 | inconclusive: 3.55 µM [inhibitor, partial curve, poor fit] |  |
| Oc1ccccc1CN1C[C@H](O)C[C@H]1c1nc(-c2ccc(F)cc2)no1 | inconclusive: 25.1 µM [inhibitor, single point] |  |
| COc1ccc(CCC(=O)N2CCC3(CC2)CCC(O)(CN(C)C)CC3)cc1 | inconclusive: 1 µM [inhibitor, partial curve, poor fit] |  |

| SMILES | Potency | activity, negative = inhibition |
| --- | --- | --- |
| CCOc1cc(C2c3c(-c4ccccc4O)n[nH]c3C(=O)N2Cc2cccnc2)ccc1O (centres undefined) | inconclusive: 1.12 µM [inhibitor, full curve, poor fit] |  |
| CC(C)C[C@@H]1N[C@H](C(=O)N2CCC(NC(=O)c3ccccc3)CC2)Cc2c[nH]c3cccc1c23 | active: 10 µM |  |
| O=C(NCc1ccccc1)NC[C@H]1Cn2c(-c3ccc(Cl)cc3)cnc2CO1 | active: 2.82 µM |  |
| O=C(CCc1c[nH]c2ccccc12)N1[C@H]2CC[C@@H]1c1cnc(-c3ccccc3)nc1C2 | inactive |  |
| O=C(Nc1ccccc1)N1CCC(Oc2ccccc2-c2nc(-c3cnccn3)no2)C1 (centres undefined) | inactive |  |
| Cc1ccc(CNC(=O)c2ccc(NC(=O)c3cc4c(=O)[nH]c(C)cn4n3)cc2)cc1 | active: 3.98 µM |  |
| Cc1ccccc1[C@@H]1CN(C(=O)CCC(=O)NC2CCCC2)C[C@H]1C(=O)O | inconclusive: 11.2 µM [inhibitor, partial curve, poor fit] |  |
| O=C(NCCc1nc2ccccc2n1CCCOc1ccc(Cl)cc1)C1CCCCC1 | inconclusive: 17.8 µM [inhibitor, single point] |  |
| O=C(Nc1c2c(nn1-c1ccc(Cl)cc1)CS(=O)(=O)C2)c1ccccc1F | inconclusive: 11.2 µM [inhibitor, partial curve, poor fit] |  |
| CCCCN1C(=O)[C@@H]2C[C@@H](O)CN2C2(CN(C3CCOCC3)C2)C1=O | inactive |  |
| CCNC(=O)[C@@H]1C[C@H](NC(=O)c2oc(C)nc2C)CN1Cc1nc(C)no1 | inactive |  |
| Fc1ccc(Cn2c(-c3cccc(Br)c3)nc3ccccc32)cc1 | inconclusive: 17.8 µM [inhibitor, single point] |  |
| COc1ccc(CNC(=O)N[C@@H]2CN(c3ccncn3)C[C@H]2CN(C)C)cc1 | inconclusive: 0.708 µM [inhibitor, full curve, poor fit] |  |
| CCOc1ccc(CCNC(=O)Cn2nc(CC)n3c(cc4sccc43)c2=O)cc1 | inconclusive: 11.2 µM [inhibitor, partial curve, poor fit] |  |
| COc1cc(-c2nc(-c3c(C)noc3C)cc3cc(C)oc23)ccn1 | active: 11.2 µM |  |
| CCOc1ccccc1C(=O)NC1CCCN(c2cc(-c3ccc(F)cc3)[nH]n2)C1 (centres undefined) | inactive |  |
| CC(Oc1ccc(F)cc1F)C(=O)N1CCC2(CC1)CC(=O)N(C)C2 (centres undefined) | inactive |  |
| COc1ccc(NC(=O)C2(C)CCCCC(=O)N2)cc1 (centres undefined) | inconclusive: 17.8 µM [inhibitor, single point] |  |
| COc1ccc(C(=O)N[C@H]2CO[C@H]3[C@@H]2OC[C@@H]3n2cc(-c3ccccn3)nn2)cc1 | inconclusive: 28.2 µM [inhibitor, partial curve, poor fit] |  |
| O=C(CCc1ccccc1)Nc1ccc([C@@H](O)[C@H]2COCC(=O)N2Cc2ccccc2F)cc1 | active: 11.2 µM |  |
